From PubChem BioAssay AID485294 (National Center for Advancing Translational Sciences (NCATS), 2010)
Screen size: about 370,000 compounds; about 150 (0.041%) were called active. The inconclusive results got no clear call from the source; some entries with a clear call stand among them for comparison. The call rests on the fitted dose curve; in most records, active means well fitted inhibition curve with a large enough effect; inconclusive means small, poorly fitted or top-dose-only effect; inactive means flat fitted curve, though single readings scatter. No potency is given beside an inconclusive call; the fits are too rough.

Biological target: Beta-lactamase (Escherichia coli (strain K12)) (UniProt P00811)
Sequence of UniProt P00811 (P00811 whole entry, looked up): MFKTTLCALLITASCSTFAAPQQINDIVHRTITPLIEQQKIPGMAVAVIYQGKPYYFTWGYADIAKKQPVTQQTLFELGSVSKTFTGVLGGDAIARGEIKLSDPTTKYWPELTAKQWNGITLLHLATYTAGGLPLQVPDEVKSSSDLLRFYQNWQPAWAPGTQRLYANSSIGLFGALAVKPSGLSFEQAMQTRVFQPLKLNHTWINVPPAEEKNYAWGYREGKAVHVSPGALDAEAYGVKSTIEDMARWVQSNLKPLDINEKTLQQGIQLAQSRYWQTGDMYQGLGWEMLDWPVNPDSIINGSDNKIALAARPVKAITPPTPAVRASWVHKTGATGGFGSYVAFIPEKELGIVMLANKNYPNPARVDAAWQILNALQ
Experiment: qHTS Inhibitors of AmpC Beta-Lactamase (assay with detergent); further: nearly all actives have a fitted effect of over 25% in size
Conditions: AmpC hydrolysis of nitrocefin, absorbance 480 nm, 0.01% Triton; series mostly up to 114 µM
Summary of the method: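 AmpC (5.3 nM in the dispensed reagent) in 20 mM phosphate pH 7.0 with 0.01% (detergent screen) or 0.0001% Triton X-100 was preincubated with compounds for 15 min at room temperature. Nitrocefin was then added from an 800 uM solution, and hydrolysis was followed at 480 nm.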
Potency means the concentration at half of the fitted maximal effect; tags describe the fitted curve by direction and shape.

Compound | Potency
C#CC[N+](CC)(CC)CC#Cc1cccc(Cl)c1 | inactive
Cc1sc(NC(=O)CSc2nnc(C(C)C)n2C)c(C#N)c1C | inconclusive [inhibitor, single point]
O=C(N/N=C/c1cccs1)c1cccc(NC(=O)c2ccccc2Cl)c1 | inactive
COc1ccc(NC(=O)Nc2nnc(N(CC(C)C)CC(C)C)s2)c(OC)c1 | inactive
CC1CC1C(=O)OCC(=O)NC(=O)c1ccccc1 (stereo unspecified) | inconclusive [inhibitor, single point]
C#CCOc1nc(OCC#C)nc(OCC#C)n1 | inconclusive [inhibitor, partial curve, poor fit]
O=C(COC(=O)c1ccccc1Nc1cccc(C(F)(F)F)c1)NCc1ccco1 | inactive
CCC1(C)Cc2ccccc2-c2nc3n(c(=O)c21)CCCCC3 (stereo unspecified) | inactive
Cc1ccc(NC(=O)c2ccc(OCc3c(C)noc3C)cc2)nc1 | inactive
COc1cc(/C=C(/C#N)C(=O)Nc2ccc(Cl)cc2)ccc1Oc1nc(Cl)ncc1F | inactive
CCOC(=O)CSc1nnc([C@@H](NC(=O)OC(C)(C)C)C(C)C)o1 | inconclusive [inhibitor, full curve]
Cc1ccccc1-c1nc(P(=O)(c2ccccc2)c2ccccc2)c(N2CCOCC2)o1 | inactive
CCOC(=O)C1=C(CC)Nc2ccccc2N=C1NC(=O)c1ccc(S(=O)(=O)N2CCCC2)cc1 | inconclusive [inhibitor, full curve, poor fit]
O=C(NC1CCCC1)C(c1ccncc1)N(Cc1ccccc1)C(=O)c1ccc(-c2ccccc2)[nH]1 (stereo unspecified) | inconclusive [inhibitor, partial curve]
CCC(C(=O)NC1CCCC1)N(C(=O)Cn1nnc(-c2ccc(C)o2)n1)C(C)(C)C (stereo unspecified) | inconclusive [inhibitor, full curve]
O=C(CCS(=O)(=O)c1cccc2nonc12)Nc1ccc(Br)cc1 | inconclusive [inhibitor, full curve, poor fit]
CNCCCNC(=O)c1ccc(/C=N/O)nc1 | inactive
COC(=O)c1[nH]c2ccc(F)cc2c1NC(=O)CCN1CCN(Cc2ccc3c(c2)OCO3)CC1 | inactive
CCOc1ccc(CCNC(=O)CN2CCN(Cc3ccccc3F)C2=O)cc1OCC | inconclusive [inhibitor, single point]
CC(=Nc1ccc(F)cc1)c1c(O)n(C)c(=O)[nH]c1=O | inconclusive [inhibitor, single point]
CCOC(=O)Cc1csc(NC(=O)C2CCCN(S(=O)(=O)c3cnc[nH]3)C2)n1 (stereo unspecified) | inconclusive [inhibitor, full curve, poor fit]
